Source: PMC5805785, “Site-specific phosphorylation of TRANSPARENT TESTA GLABRA1 mediates carbon partitioning in Arabidopsis seeds” (Nature Communications, 2018)
Where a chain is given by its changes, count along the chain named. Results are given in words; binding and its absence hold for the method and conditions named. For some assays here: In cells and extracts the contact can be indirect. Some binding calls cover weakened binding; strength is not graded here. Sequences can lack the tags named with a protein. Blank lines part the entries; values can stand above or below the binder they belong to.

Legend:
[1] = molecular target: T1, 4HA-TTG1^S215E (Arabidopsis thaliana) (UniProt Q9XGN1); experiment: co-IP; total protein extracts of transgenic Arabidopsis siliques 4 days after pollination; anti-HA agarose beads, 4 °C, 2 h; 50 mM Tris-HCl pH 7.5, 150 mM NaCl, 1 mM EDTA, 5% glycerol, 0.5% Triton X-100; blot with anti-GFP and anti-HA
T1 sequence: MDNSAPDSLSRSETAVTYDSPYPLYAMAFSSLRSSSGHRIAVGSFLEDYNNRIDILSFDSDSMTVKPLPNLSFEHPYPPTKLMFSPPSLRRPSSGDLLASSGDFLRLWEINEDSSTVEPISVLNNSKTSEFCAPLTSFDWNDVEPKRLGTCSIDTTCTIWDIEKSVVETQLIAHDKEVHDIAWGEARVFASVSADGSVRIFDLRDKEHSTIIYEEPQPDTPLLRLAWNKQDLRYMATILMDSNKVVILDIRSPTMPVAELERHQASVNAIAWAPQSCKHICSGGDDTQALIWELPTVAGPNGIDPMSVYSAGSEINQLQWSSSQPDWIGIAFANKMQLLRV

[2] = molecular target: T2, 4HA-TTG1^S215A (Arabidopsis thaliana) (UniProt Q9XGN1); experiment: as above
T2 sequence: T1 sequence with E215A

[3] = molecular target: T3, 4HA-TTG1 (Arabidopsis thaliana) (UniProt Q9XGN1); experiment: as above
T3 sequence: T1 sequence with E215S

[4] = molecular target: T4, MBP-TTG1^S215E (Arabidopsis thaliana) (UniProt Q9XGN1); experiment: pull-down; MBP, MBP-TTG1, MBP-TTG1^S215E and MBP-TTG1^S215A on amylose beads as baits; TT2-His as prey, detected with anti-His; both purified
T4 sequence: T1 sequence

[5] = molecular target: T5, TTG1^S215E fused to cYFP (Arabidopsis thaliana) (UniProt Q9XGN1); experiment: split reporter; BiFC: cYFP and nYFP fusions co-expressed in Nicotiana benthamiana leaf epidermal cells by Agrobacterium infiltration, confocal microscopy 2 days after infiltration
T5 sequence: T1 sequence

binding [1]: no binding
binding [2]: binds
binding [3]: binds
B1: TT2-GFP (protein, UniProt Q9FJA2 1-258)
chain: MGKRATTSVRREELNRGAWTDHEDKILRDYITTHGEGKWSTLPNQAGLKRCGKSCRLRWKNYLRPGIKRGNISSDEEELIIRLHNLLGNRWSLIAGRLPGRTDNEIKNHWNSNLRKRLPKTQTKQPKRIKHSTNNENNVCVIRTKAIRCSKTLLFSDLSLQKKSSTSPLPLKEQEMDQGGSSLMGDLEFDFDRIHSEFHFPDLMDFDGLDCGNVTSLVSSNEILGELVPAQGNLDLNRPFTSCHHRGDDEDWLRDFTC

binding [4]: no binding
B2: TT2-His (natural protein, Arabidopsis thaliana, UniProt Q9FJA2 1-258, looked up)
chain: B1 chain
notes: TRANSPARENT TESTA2 (TT2; MYB123), Arabidopsis thaliana; cDNA cloned into pET28a; also called MYB123; source: E. coli Rossetta (DE3), IPTG-induced, soluble fusion protein

binding [5]: no binding
B3: TT2 fused to nYFP (protein, UniProt Q9FJA2 1-258)
chain: B1 chain
